Data taken from article PMC12259270, “Sensory neuron–expressed FGF13 controls nociceptive signaling in diabetic neuropathy models” (The Journal of Clinical Investigation, 2025).
Some values that stand alone complete this part of the results. Residues, ends and D or L forms follow the SMILES beside them. *: point of attachment. NHPh = c1ccc(N*)cc1

Test system: Na+ currents in hIPSC-derived sensory neurons (RealDRG)
Assay: Whole-cell voltage clamp, hIPSC-derived sensory neurons (RealDRG) with Nav1.7 blocker ProTx-II
Type: cell-based, human
Protocol: Next, we conducted whole-cell patch-clamp electrophysiological recordings in hIPSC-derived sensory neurons under three conditions: unstimulated and treated with 0.07% ethanol (capsaicin vehicle), treated with capsaicin (100 nM, 10 minutes), and treated with capsaicin plus SB-366791 (10 μM), a selective TRPV1 inhibitor. Each group was exposed to either vehicle (0.01% DMSO) or PW164 (50 μM), with all recordings performed in the presence of the Nav1.8 blocker A-803467 (300 nM) ([41]). The experimental groups are color coded in Figure 2A. Capsaicin caused potentiation of INa (Figure 2A) and induced hyperpolarizing shifts in the V1/2 of activation (Figure 2B) and SSI (Figure 2C). […] Next, we investigated whether silencing FGF13 could replicate PW164’s effects and prevent additional activity of the compound. hIPSC-derived sensory neurons were transfected with a previously validated pAAV-shFGF13-GFP construct ([42]) (Supplemental Figure 8). […] Neither PW164 nor FGF13 silencing affected Na+ currents in neurons transfected with pAAV-shCTRL-GFP or pAAV-shFGF13-GFP, whether unstimulated or treated with capsaicin in the presence of ProTx II (Supplemental Figure 9 and Supplemental Table 6). Thus, PW164 selectively modulated FGF13-dependent Na^+ current sensitization via TRPV1, with FGF13 silencing mimicking and validating PW164’s effect. […]
Whole-cell patch clamp electrophysiology
HEK293-Nav1.7 cells, HEK293 stably expressing human Nav1.6 (HEK-Nav1.6), HEK293 stably expressing human Nav1.5 (HEK-Nav1.5), human hIPSC-derived sensory neurons (RealDRGTM from Anatomic Incorporated 1020F1-1M) and donor-derived DRG neurons were plated at low density on glass coverslips and processed for whole-cell patch clamp electrophysiology in voltage-clamp and/or current clamp mode. Whole-cell patch electrophysiological experiments were conducted following previously published studies (26). Current densities were obtained by dividing INa amplitude by membrane capacitance. Current –voltage relationships were generated by plotting current density as a function of the […]. Conductance (G Na) was calculated by the […]
where INa is the current amplitude at voltage Vm, and Erev is the Na+ reversal potential.
Activation curves were derived by plotting normalized GNa as a function of test potential and fitted using […]
Where GNa,Max is the maximum conductance, Va is the membrane potential of half-maximal activation, Em is the membrane voltage and k is the slope factor. For steady -state inactivation, normalized current amplitude (INa/INa,Max) at the test potential was plotted as a function of prepulse potential (Vm) and fitted using the […]
Where Vh is the potential of half-maximal inactivation, E m is the membrane voltage, and k is the slope factor.
Transient INa inactivation decay was estimated with the standard exponential equation. Inactivation time constant (tau, τ) was fitted with the following equation: […]
where I(t) is the amplitude of the current at time t and Iss is the steady-state current during a single voltage-step.
The goodness of fitting was determined by correlation coefficient (R), and the cutoff of R was set at 0.85. To observe effects on long-term inactivation (LTI), a four-step protocol was employed during which cells were subjected to four 0 mV, 20 ms depolarization pulses separated by −90 mV, 40 ms recovery intervals. To control for various cell sizes, the current densities were calculated by dividing INa peak current amplitude/membrane capacitance (Cm). To represent the fraction of channels entering into LTI, the peak INa observed during depolarization cycles 2-4 was normalized to the peak INa observed during depolarization cycle 1 (INa/INa,Cycle 1) and plotted as a function of the depolarization cycle.
The cumulative (frequency-dependent) use-dependency was determined by applying 20 pulses with a depolarization to −10 mV (50 ms duration) and 50 ms recovery intervals with a train of 20 pulses at 10 Hz from a holding potential at -70 mV. […]

CC(=O)N[C@@H](Cc1ccccc1)C(=O)N[C@@H](CC(C)C)C(=O)N1CCC[C@H]1C(=O)N[C@@H](CCCCN)C(=O)Nc1ccccc1 [ZL192] (Ac-FLPK-NHPh)
Long-term inactivation, 2nd pulse (% of maximal Na+ current) (Control cells, 3rd pulse): 99.176
Long-term inactivation, 2nd pulse (% of maximal Na+ current) (Control cells, 4th pulse): 98.9578
Long-term inactivation, 2nd pulse (% of maximal Na+ current) (Naive cells, 3rd pulse): 100.382
Long-term inactivation, 2nd pulse (% of maximal Na+ current) (Naive cells, 4th pulse): 100.457
Long-term inactivation, 2nd pulse (% of maximal Na+ current) (ShFGF13 cells, 3rd pulse): 97.2554
Long-term inactivation, 2nd pulse (% of maximal Na+ current) (ShFGF13 cells, 4th pulse): 99.2296
